# Measured values from PubChem BioAssay AID2101 (National Center for Advancing Translational Sciences (NCATS), 2009).
# Several values for one entry are separate records, joined by “and”; a condition that tells them apart may be missing. Equal entries are not always repeated. The campaign covered roughly 330,000 compounds. About 300 (0.091%) were called active. Another 4% or so got no clear call; they are omitted. The call rests on the fitted dose curve; in most records, active means well fitted inhibition curve with a large enough effect; inconclusive means small, poorly fitted or top-dose-only effect, or effect the other way, or another doubt; inactive means no such curve, though single readings can be large or run the other way. Only a part is listed here, and it is no random draw. More than one record can exist for a structure, and the calls need not agree.
# Biological target: Lysosomal acid glucosylceramidase (Homo sapiens) (UniProt P04062)
# Assay: qHTS Assay for Inhibitors and Activators of N370S glucocerebrosidase as a Potential Chaperone Treatment of Gaucher Disease;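 on activity change, negative = inhibition: 0% = full enzyme activity and -100% = no enzyme basal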
# Conditions: N370S GC spleen homogenate, 4MU-glucoside fluorescence; series mostly up to 59.4 µM; activity change, negative = inhibition: at the top concentration
# Potency means the concentration at half of the fitted maximal effect.
Compound,Potency,"activity change, negative = inhibition"
CCOc1ccc(N(CC(=O)Nc2c(C)cccc2C)S(=O)(=O)c2c(C)[nH]c(=O)[nH]c2=O)cc1,active: 4.47 µM,–
COc1cc(OC)c2c(-c3ccccc3)cc(=O)oc2c1C(CCN1CCCCC1)c1ccc2c(c1)OCO2 (centres undefined),–,inactive: -25.5%
CCCCCCCCCCOC(=O)Cn1c(COc2ccc(OC)cc2)[n+](C)c2ccccc21,–,inactive: -12.6%
COc1cc2nc(N(C)CCCNC(=O)C3CCCO3)nc(N)c2cc1OC (centres undefined),–,inactive: 29.8%
O=c1c(OC2OC(CO)C(O)C(O)C2O)c(-c2ccc(O)c(O)c2)oc2cc(O)cc(O)c12 (centres undefined),–,inactive: -12.7%
O=C(NCCCCc1ccccc1)C12CN(Cc3ccccc3)CC1C(c1ccc([N+](=O)[O-])cc1)=NO2 (centres undefined),active: 10 µM,–
CC(=O)n1cc([C@H]2C=C(C(=O)N3CCN(Cc4ccc5c(c4)OCO5)CC3)O[C@@H](OCc3ccc(CO)cc3)C2)c2ccccc21,–,inactive: -4.17%
COc1ccc(C(CC(=O)N2CCCC2)c2c(OC)cc(OC)c3ccc(=O)oc23)cc1 (centres undefined),–,inactive: 18.3%
C[C@H](NC(=O)c1nc[nH]c1C(=O)N[C@@H](CCCCNC(=O)OC(C)(C)C)C(=O)OC(C)(C)C)c1ccccc1,–,inactive: 23.4%
CC(=O)Oc1ccccc1C(=O)O,inactive,–
CCN(CC)c1ccc(/C=C2\SC(=O)N(C(C)C)C2=O)o1,–,inactive: -26.6%
CCCCCCCCCCCCCCC[C@H](O)[C@@H](N)CO,inactive,–
COc1ccccc1CNc1nc(-c2ccc3c(c2)OCO3)nc2ccccc12,active: 15.8 µM,–
C(C#CCCCCCCCCC[n+]1ccccc1)#CCCCCCCCCC[n+]1ccccc1,active: 11.2 µM,–
C1COC(NC(C2CC2)C2CC2)=N1,inactive,–
COC(=O)C1C(O)CCC2CN3CCc4c([nH]c5ccccc45)C3CC21 (centres undefined),–,inactive: 13.3%
OCCN1CCN(CC/C=C2\c3ccccc3Sc3ccc(C(F)(F)F)cc32)CC1,–,inactive: 5.12% [at 21.6 µM]
CC1=NN(c2ccccc2)C(=O)C1,inactive,–
COC1/C=C/OC2(C)Oc3c(C)c(O)c4c(O)c(c(/C=N/N5CCN(C)CC5)c(O)c4c3C2=O)NC(=O)/C(C)=C/C=C/C(C)C(O)C(C)C(O)C(C)C(OC(C)=O)C1C (centres undefined),–,inactive: -17.6%
COC(=O)C1=C(C)N(Cc2ccco2)C(=O)N[C@H]1c1cccc(C(F)(F)F)c1,inactive,–
N#C/C(=C\c1ccc(N2CCOCC2)o1)C(=O)NC1CCCCC1,–,inactive: -11.9%
CN(C)c1ccc(N=C/C=C2/N(C)c3ccccc3C2(C)C)cc1,–,inactive: -21.3%
CCCC1OC2CC3C4CCC5=CC(=O)C=CC5(C)C4C(O)CC3(C)[C@]2(C(=O)CO)O1 (some centres undefined),–,inactive: -5.86%

Compound,Potency,"activity change, negative = inhibition"
Cc1cc(C)cc(N(CC(=O)Nc2ccc(C)cc2Cl)S(=O)(=O)c2c(C)[nH]c(=O)[nH]c2=O)c1,active: 0.251 µM,–
CC(=O)OC(C)(C)C1Cc2cc3ccc(=O)oc3cc2O1 (centres undefined),–,inactive: 0.382%
CC[N+](CC)(CC)CCOc1ccc(/C=C/c2ccccc2)cc1,–,inactive: -16.7%
COc1ccccc1[C@@H]1C(c2ccc(F)cc2)=NN(c2ccccc2)[C@H]1C(=O)N1CCOC1=O,–,inactive: 25.5%
O=C(CSc1nc2ccccc2[nH]1)N/N=C/C=C\c1ccccc1[N+](=O)[O-],–,inactive: 28.7%
COC(=O)[C@@H]1[C@@H]2C[C@H]3c4[nH]c5ccccc5c4CCN3C[C@@H]2CC[C@@H]1O,inactive,–
CCCc1c(-c2ccc(O)cc2)nn(-c2ccc(O)cc2)c1-c1ccc(O)cc1,–,inactive: -13.9%
Fc1ccc(CNc2nc(-c3ccccc3)nc3ccccc23)cc1,active: 14.1 µM,–
Oc1ccc(NC(=S)Nc2ccccc2)cc1,–,inactive: 18.2%
O=C(OCCN=C1NS(=O)(=O)c2ccccc21)C1CC(=O)N(c2ccc3ccccc3c2)C1 (centres undefined),active: 3.55 µM,–
COc1cccc(-c2cc(=O)c3ccccc3o2)c1N,inactive,–
O=C(CCc1ccc(O)cc1)c1c(O)cc(O)cc1O,inactive and active: 17.8 µM,–
CCC1Cc2cc(O)ccc2C2=C1c1ccc(O)cc1CC2CC (centres undefined),–,inactive: 7.78%
O=c1cc(-c2ccc(O)cc2)oc2ccc(O)cc12,–,inactive: 6.8%
CN1CCN(CCCN2c3ccccc3Sc3ccc(C(F)(F)F)cc32)CC1,inactive,–
CCCn1c(N)[n+](CC(=O)c2ccco2)c2ccccc21,–,inactive: 8.06%
COc1ccc(-c2ccc(F)cc2)cc1C1C2C=CCC(C)C2C(=O)N1Cc1ccccc1 (centres undefined),–,inactive: 7.09%
CN1CCN(C2Cc3ccccc3Sc3ccc(S)cc32)CC1 (centres undefined),active: 12.6 µM,–
COC(=O)[C@@H]1C[C@@H]2CC[C@@H](O)C[C@@H]2N1Cc1ccc(Cl)cc1,–,inactive: -25%
CCc1ccc(NC(=O)CN(c2ccc(OC)cc2)S(=O)(=O)c2c(C)[nH]c(=O)[nH]c2=O)cc1,active: 3.16 µM,–
CCc1cc2c(nc1CC)CCN(CC/C(C)=N/OC[C@H]1O[C@H](c3ccccc3)C=C[C@@H]1Oc1ccc(OC)cc1)C2,–,inactive: -2.38% [at 12.8 µM]
COc1ccc2c(c1)c(CC(=O)O)c(C)n2C(=O)c1ccc(Cl)cc1,inactive,–
CN1CCN(CCCN2c3ccccc3Sc3ccc(Cl)cc32)CC1,inactive,–

Compound,Potency,"activity change, negative = inhibition"
Fc1ccccc1-c1nc(NCc2ccccc2)c2ccccc2n1,active: 12.6 µM,–
N=c1c2c(-c3ccccc3)c(-c3ccccc3)n(Cc3ccccc3)c2ncn1CCO,active: 3.98 µM,–
COc1ccc([C@H]2Sc3ccccc3N(CCN(C)C)C(=O)[C@H]2OC(C)=O)cc1,–,inactive: -7.04% [at 21.6 µM]
COc1ccc(CNc2nc(-c3ccccc3)nc3ccccc23)cc1OC,active: 14.1 µM,–
Cc1ccccc1-c1nccc(NCc2cccs2)n1,active: 4.47 µM,–
CCCCC[C@H](O)/C=C\[C@H]1[C@H](C/C=C\CCCC(=O)O)[C@@H](O)C[C@H]1O (tested in a mixture with another compound),–,inactive: -6.72% [at 21.6 µM]
CCCCC[C@H](O)/C=C/[C@H]1[C@H](O)CC(O)[C@@H]1C/C=C\CCCC(=O)O (some centres undefined),–,inactive: -4.46%
COc1ccc(CNc2nc(-c3ccoc3)nc3ccccc23)c(OC)c1,active: 14.1 µM,–
OC(CNc1nc(-c2cccnc2)nc2ccccc12)c1ccccc1 (centres undefined),active: 10 µM,–
COc1cccc(-c2ccc3ncnc(N(C)Cc4ccco4)c3c2)c1,–,inactive: -16.1%
Cc1cc2nc3c(=O)[nH]c(=O)nc-3n(CC(O)C(O)C(O)CO)c2cc1C (centres undefined),inactive,–
COc1ccc(C2CC(=O)Oc3c(C(CCN4CCCC(C)C4)c4ccc(N(C)C)cc4)c(OC)cc(OC)c32)cc1 (centres undefined),–,inactive: -18.9%
Cc1c(C)c2ccc(O[C@@H]3O[C@H](CO)[C@@H](O)[C@H](O)[C@H]3O)c(C)c2oc1=O,–,inactive: 0.724%
COc1ccc(C2CC(c3c(O)cc(C)oc3=O)=NCCS2)c(OC)c1 (centres undefined),–,inactive: -1.78%
COc1ccc(C2=C(CN(C)C)C(c3ccccc3)c3ccccc3O2)cc1 (centres undefined),–,inactive: -17.3%
COc1cccc(C(=O)Nc2ccc3nc(N4CCOCC4)cc(C)c3c2)c1,active: 10 µM,–
COc1cc(O)c2c(=O)cc(-c3ccccc3)oc2c1,–,inactive: 26.7%
COC(=O)C1=C(C)NC(C)=C(C(=O)OCCCN2CCC(c3ccccc3)(c3ccccc3)CC2)[C@H]1c1cccc([N+](=O)[O-])c1,–,inactive: -23.1%
FC(F)(F)c1ccccc1-c1nccc(NCc2cccs2)n1,active: 3.16 µM,–
COc1cc(NS(C)(=O)=O)ccc1Nc1c2ccccc2nc2ccccc12,–,inactive: 0.196%
C[C@@H]([C@H](O)c1ccc(O)cc1)N1CCC(Cc2ccccc2)CC1,inactive,–
COC(=O)[C@H](C)[C@H]1C[C@]1(C)[C@H](NC(=O)OCc1ccccc1)c1ccccc1,inactive,–
Oc1ccc(C[C@@H]2CNCCN2CCC23CC4CC(CC(C4)C2)C3)cc1,–,inactive: -26.3%

Compound,Potency,"activity change, negative = inhibition"
Clc1ccccc1-c1nccc(NCc2ccccc2)n1,active: 3.55 µM,–
COc1ccc(NC(=O)c2ccc(-c3ccc(-c4noc(C)n4)cc3C)cc2)cc1OCCN(C)C,inactive,–
Cc1ccc(NC(=O)OCCN2CCN(Cc3ccccc3)CCC2=O)cc1,–,inactive: -9.87% [at 89.1 µM]
COc1cc2cc3c4cc(OC)c(OC)cc4cc[n+]3c(C)c2cc1OC,–,inactive: 20.4% [at 21.6 µM]
CC(COc1ccc(/C=C/c2ccccc2)cc1)[N+](C)(C)C (centres undefined),–,inactive: -18.3%
O=C(N[C@@H](Cc1ccccc1)C(=O)CCl)OCc1ccccc1,–,inactive: -10.5%
CCCCC[C@H](O)/C=C/[C@@H]1[C@@H](C/C=C\CCCC(=O)O)[C@@H](O)C[C@H]1O,–,inactive: 1.63%
CCc1ccc(/C=C2/SC(=S)N(CCC(=O)NCCCN3CCOCC3)C2=O)cc1,–,inactive: -14.9%
CC(=O)c1ccc(S(=O)(=O)NC(=O)NC2CCCCC2)cc1,inactive,–
COc1ccc(Nc2nc(-c3ccccc3)nc3ccccc23)cc1S(=O)(=O)N1CCOCC1,active: 14.1 µM,–
O=c1cc(-c2ccc(O)cc2)oc2cc(O)cc(O)c12,inactive,–
C#CCOCCOCCOCCNc1nc(N2CCN(C(=O)CCCCCCCCCCNC(=O)[C@H](CCCCN)n3cc(C)nn3)CC2)nc(N2CCN(C(=O)CCCCCCCCCCNC(=O)[C@@H]([C@H](C)CC)n3cc(CCCCCN)nn3)CC2)n1,active: 17.8 µM,–
CCCCC[C@H](O)/C=C/[C@@H]1[C@H](C/C=C\CCCC(=O)O)[C@@H](O)C[C@H]1O,inactive,–
Cc1ccc(OC[C@H](O)[C@H](C)NC(C)C)c2c1CCC2,–,inactive: -2.58%
CCCCC[C@H](O)/C=C/[C@@H]1[C@@H](C/C=C\CCCC(=O)O)[C@@H](O)C[C@@H]1O,inactive,–
Cc1ccn2c(NCc3ccccc3)c(-c3cccs3)nc2c1,active: 11.2 µM,–
CCO[C@@H]1OC(C(=O)N2CCCCCCC2)=C[C@H](c2csc3ccccc23)[C@H]1CCCO,–,inactive: 27.4%
COCCN1C(=O)N(C)[C@@H](c2ccccc2)C(C(C)=O)=C1C,–,inactive: -7.34% [at 12.8 µM]
COc1ccc(CCN2CCC(Nc3nc4ccccc4n3Cc3ccc(F)cc3)CC2)cc1,inactive,–
CN(C)c1ccc(O)c2c1C[C@H]1C[C@H]3[C@@H](N(C)C)C(=O)C(C(N)=O)=C(O)[C@]3(O)C(=O)C1=C2O,–,inactive: -6.15% [at 21.6 µM]
